Laboratory results reported in the supplement of paper PMC4967469.

Compound: CCCCCCCCCCCC1=C(O)C(=O)C=C(O)C1=O [Embelin]
Assay: Viability of human cancer cell lines after 72 h of drug (GDSC screen)
Conditions: top dose 32 µM; top dose inferred
Procedure: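 Human cancer cell lines in 384-well plates, medium with 10% serum, drug for 72 h over a 256-fold dose range (nine 2-fold or five 4-fold steps up to the top dose). Adherent lines were fixed and stained with the nucleic acid dye Syto60, suspension lines read with resazurin; signal relative to control wells, capped at 0 and 100%. One two-parameter sigmoid per drug and line, fitted in a mixed model over all curves with the slope shared within a line.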

Cell Line	AUC	IC50 [µM]
LU-135 (small cell lung carcinoma, suspension)	0.601	3.59
LU-139 (small cell lung carcinoma, suspension)	0.849	> 32
LU-165 (small cell lung carcinoma, suspension)	0.936	> 32
LXF-289 (lung adenocarcinoma, adherent)	0.74	9.57
LoVo (large intestine, adherent)	0.632	4.66
M14 (melanoma, adherent)	0.792	15.4
M059J (glioma, adherent)	0.81	18.7
MC116 (B-cell lymphoma, suspension)	0.505	2.06
MC-CAR (haematopoietic neoplasm, suspension)	0.633	4.45
MC-IXC (neuroblastoma, adherent)	0.702	6.2
MCF7 (breast, adherent)	0.697	7.31
MDA-MB-157 (breast, adherent)	0.72	8.54
MDA-MB-175-VII (breast, adherent)	0.843	26.3
MDA-MB-231 (breast, adherent)	0.827	21.1
MDA-MB-330 (breast, adherent)	0.694	7.65
MDA-MB-361 (breast, adherent)	0.759	11.1
MDA-MB-415 (breast, adherent)	0.831	30.7
MDA-MB-436 (breast, adherent)	0.699	8.44
MDA-MB-453 (breast, adherent)	0.974	> 32
MDA-MB-468 (breast, adherent)	0.841	21.1
MDST8 (large intestine, adherent)	0.918	> 32
ME-1 (acute myeloid leukaemia, suspension)	0.84	24.4
ME-180 (cervix, adherent)	0.852	26.4
MEG-01 (chronic myeloid leukaemia, suspension)	0.875	28.3
MEL-JUSO (melanoma, adherent)	0.723	9.37
MES-SA (uterus, adherent)	0.844	18
MFE-280 (endometrium, adherent)	0.762	14.4

Cell Line	AUC	IC50 [µM]
MFE-296 (endometrium, adherent)	0.817	19.6
MFE-319 (endometrium, adherent)	0.659	5.45
MFH-ino (soft tissue, adherent)	0.681	7.07
MFM-223 (breast, adherent)	0.925	> 32
MG-63 (osteosarcoma, adherent)	0.72	9.4
MHH-ES-1 (Ewing sarcoma, adherent)	0.825	18.8
MHH-NB-11 (neuroblastoma, adherent)	0.895	> 32
MHH-PREB-1 (B-cell leukaemia, suspension)	0.744	9.09
MIA-PaCa-2 (pancreas, adherent)	0.648	5.35
MKN1 (stomach, adherent)	0.796	15.9
MKN28 (stomach, adherent)	0.689	6.87
MKN45 (stomach, adherent)	0.683	7.51
ML-1 (thyroid, adherent)	0.612	4.29
ML-2 (acute myeloid leukaemia, suspension)	0.777	11.4
MLMA (hairy cell leukaemia, semi-adherent)	0.927	> 32
MMAC-SF (melanoma, adherent)	0.853	
MN-60 (B-cell leukaemia, suspension)	0.739	9.98
MOG-G-CCM (glioma, adherent)	0.77	14.2
MOG-G-UVW (glioma, adherent)	0.759	10.9
MOLM-13 (acute myeloid leukaemia, suspension)	0.811	15.7
MOLP-8 (myeloma, suspension)	0.781	12.8
MOLT-4 (lymphoblastic leukaemia, suspension)	0.754	9
MONO-MAC-6 (acute myeloid leukaemia, suspension)	0.813	18.6
MPP-89 (mesothelioma, adherent)	0.841	> 32
MRK-nu-1 (breast, suspension)	0.799	13.9
MS751 (cervix, adherent)	0.888	31.4
MS-1 (small cell lung carcinoma, suspension)	0.907	> 32

Cell Line	AUC	IC50 [µM]
MSTO-211H (mesothelioma, adherent)	0.919	> 32
MV-4-11 (leukaemia, suspension)	0.883	23.8
MY-M12 (leukaemia, suspension)	0.769	13.7
MZ1-PC (pancreas, adherent)	0.675	6.96
MZ2-MEL (melanoma, adherent)	0.686	7.34
MZ7-mel (melanoma, adherent)	0.735	9.65
Mewo (melanoma, adherent)	0.81	21
Mo-T (hairy cell leukaemia, suspension)	0.957	> 32
NALM-6 (B-cell leukaemia, suspension)	0.599	3.57
NAMALWA (Burkitt lymphoma, suspension)	0.743	8.64
NB1 (neuroblastoma, semi-adherent)	0.847	27.4
NB5 (neuroblastoma, adherent)	0.856	26.4
NB6 (neuroblastoma, adherent)	0.758	13.4
NB7 (neuroblastoma, adherent)	0.784	14.3
NB10 (neuroblastoma, adherent)	0.904	> 32
NB12 (neuroblastoma, adherent)	0.709	9.66
NB13 (neuroblastoma, adherent)	0.807	14.2
NB14 (neuroblastoma, adherent)	0.692	6.65
NB69 (neuroblastoma, adherent)	0.894	31
NB(TU)1-10 (neuroblastoma, adherent)	0.796	12.8
NB-4 (acute myeloid leukaemia, suspension)	0.691	6.1
NCI-H23 (lung adenocarcinoma, adherent)	0.94	> 32
NCI-H28 (mesothelioma, adherent)	0.833	30.5
NCI-H64 (small cell lung carcinoma, suspension)	0.958	> 32
NCI-H69 (small cell lung carcinoma, suspension)	0.908	> 32
NCI-H82 (small cell lung carcinoma, suspension)	0.919	> 32

IC50 is the fitted dose that halves viability relative to control wells, and lower means more sensitive; fits outside the tested doses are given as limits. AUC sums up the same curve from the lowest dose to the 256-fold higher top dose; it is 1 without any effect and falls as sensitivity rises. An inferred top dose is not printed in the source and was worked back from the curve model.
